Article PMC6696147, “Broad-Spectrum Antiviral Natural Products from the Marine-Derived Penicillium sp. IMB17-046” (Molecules, 2019)

The compounds below were run on influenza A/WSN/33 (H1N1) viruses (assay: microbe, parasite or virus in culture). Details: 24 h, read-out: IAV IC50.
With COc1cc(=O)oc(C=CC=CC=CC(C)=CC2(C)OC(C)C(C)(O)C2O)c1C (single isomer, unassigned; (+)) [Compound 2, (+)-neocitreoviridin] the IC50 was 3.6 ± 0.2 µM.
For CC[C@H](C)c1nc(OC)c(Cc2c[nH]c3ccccc23)nc1O [Compound 1, (S)-6-((1H-indol-3-yl)methyl)-3-(sec-butyl)-5-methoxypyrazin-2-ol], the IC50 was 20.4 ± 0.3 µM.
C=C(CC[C@@H](C)[C@H]1CC=C2C3=C(CC[C@@]21C)[C@@]1(C)CC[C@H](O)CC1CC3=O)C(C)C (stereo partly drawn) [Compound 3, 3β-hydroxyergosta-8,14,24(28)-trien-7-one] showed an IC50 of 0.5 ± 0.02 µM.
In the case of C=C(CC[C@@H](C)[C@H]1CC[C@H]2C3=C(CC[C@]12C)[C@@]1(C)CC[C@H](O)CC1CC3=O)C(C)C (stereo partly drawn) [Compound 7, 3β-hydroxyergosta-8,24(28)-dien-7-one], the IC50 is reported as > 10 µM.
CC(C)[C@@H](C)/C=C/[C@@H](C)[C@H]1CC[C@H]2C3=C[C@@H](O)[C@@]4(O)C[C@@H](O)CC[C@]4(C)[C@H]3CC[C@]12C [Compound 8, (22E,24R)-24-methyl-5α-cholesta-7,22-dien-3β,5,6β-triol] was tested, and the IC50 was > 10 µM.
Work on NC(=O)c1ncn([C@@H]2O[C@H](CO)[C@@H](O)[C@H]2O)n1 [Ribavirin, reference compound] yielded an IC50 of 15.4 ± 0.9 µM.
